Test results: PubChem BioAssay AID1794842 (National Center for Advancing Translational Sciences (NCATS), 2023)
Screen size: about 2,800 compounds; fewer than 10 were called active. Calls come from the whole dose curve; as a rule, active = well fitted curve in the direction sought with a large enough effect; inconclusive = small, poorly fitted or top-dose-only effect, or another doubt; inactive = no such curve, though single readings can be large or run the other way. Some of the results follow.

Molecular target: Metallo-beta-lactamase type 2 (Klebsiella pneumoniae) (UniProt C7C422)
UniProt C7C422, sequence (C7C422 whole entry, looked up): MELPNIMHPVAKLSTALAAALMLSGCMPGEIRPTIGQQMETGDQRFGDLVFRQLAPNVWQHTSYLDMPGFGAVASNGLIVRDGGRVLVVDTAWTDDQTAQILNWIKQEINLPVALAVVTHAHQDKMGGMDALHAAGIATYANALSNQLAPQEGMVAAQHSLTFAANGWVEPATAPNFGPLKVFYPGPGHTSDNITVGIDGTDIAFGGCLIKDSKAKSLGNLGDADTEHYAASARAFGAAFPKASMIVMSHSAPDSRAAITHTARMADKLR
Assay: qHTS to identify inhibitors of the New Delhi Metallo-beta-lactamase (NDM): Meropenem screen against the machine-based learning selections. Note: % of control where 0% means no effect.
Details: Purified NDM-1, meropenem hydrolysis, absorbance 300 nm; at 38.4 µM (top of the series) unless noted
Procedure, shortened: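 NDM-1 (2 nM final) in 50 mM HEPES pH 7.0, 1 uM Zn2SO4, 0.01% Tween20 was preincubated with compounds for >30 min. Nitrocefin (16.7 uM final) was read at 485 nm after 15 min, and meropenem (50 uM final) at 300 nm after 30 min.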

Activity change, negative = inhibition, inactive:
O=C(c1ccc(N2CCC(NCC(c3ccccc3)c3ccccc3)CC2)cc1)N1CCCC(O)C1 (stereo unspecified) -1.88%
c1cc(N2CCOCC2)ncc1-c1noc([C@@H]2CCCN2C2CCOCC2)n1 33.7% [at 57.5 µM]
COCC1(c2nc(C3CCOCC3)nn2-c2ccccc2)CCC1 0.524%
CN(Cc1ccccc1)C(=O)[C@@H]1Cc2nc[nH]c2CN1C(=O)CC(C)(C)CC(=O)O 22.3% [at 57.5 µM]
CN(CC1CCOCC1)C(=O)Nc1ccc(Cl)cc1 -1.44%
Cc1ccc(NC(=O)N2CCCC2c2nncn2C2CCCC2)cc1F (stereo unspecified) -1.18%
COc1cccc(-c2cc(C(=O)NCCOc3ccccc3)[nH]n2)c1 1%
O=C(Nc1cccnc1)N1CCOC[C@H](Oc2ccccc2)C1 2.3% [at 57.5 µM]
COC[C@H]1C[C@@H](NCc2nccs2)[C@H](O)[C@@H]1O 45.4% [at 57.5 µM]
Cc1cc(=O)n(CC(=O)Nc2cccc(F)c2)c(N2CCc3ccccc3C2)n1 1.45%
O=S(=O)(c1cccs1)N1CCC(n2cnnc2-c2ccccc2)CC1 -0.554%
O=C(c1cc2ccccc2[nH]1)N1CCNc2cnc(Nc3ccccc3)nc2C1 13% [at 57.5 µM]
Cc1ccc(F)c(C(=O)N[C@H](Cc2ccccc2)C2CC(O)C2)c1Cl (stereo partly specified) 0.198%
Nc1cc(N2CC[C@@H](N3CCN(CCc4ccccc4)CC3)[C@H](O)C2)nc(N)n1 -0.875%
Cn1ccnc1CN1C(=O)CO[C@H](c2ccc(NC(=O)CC(C)(C)C)cc2)[C@H]1CO 0.61% [at 57.5 µM]
O=C(NCC1(O)CCCCC1)C1CCN(c2nc(-c3ccccc3)nc3c2CCC3)CC1 -4.27%
CCN(C)C(=O)Cn1ncc(N2CCOC(CCN)C2)cc1=O (stereo unspecified) 41%
COC(=O)[C@H](Cc1ccc(OC)cc1)NC(=O)[C@H]1CN(C(=O)c2ccc(N(C)C)cc2)CCN1C(=O)C1CCCCC1 7.71%
C=CCC1(CO)CCCN(C(=O)c2cccc(N3CCNC3=O)c2)C1 (stereo unspecified) 0.89%
CN1c2cccnc2CN(Cc2cccc(Cl)c2)CC[C@H]1CO 0.122% [at 57.5 µM]
COc1ccc(-c2ccnc(N[C@H]3CO[C@H]4[C@@H]3OC[C@H]4OCC(N)=O)n2)cc1 6.67% [at 57.5 µM]
Fc1cccc(CN2CCC(Cc3nc(-c4ccncc4)n[nH]3)C2)c1 (stereo unspecified) 1.5%
O=C(NCc1ccc(-c2cnc3c(Oc4ccccc4)nccn23)cc1)c1cccc(O)c1 4.69% [at 57.5 µM]
CCOc1cc(=O)n2c(c1C(=O)Nc1ccc(F)c(C)c1)CCCC2 1.14%
CC(C)CN1CC[C@H](c2nc3ncccc3[nH]2)C1 -0.0731% [at 76.7 µM]
CCOc1cc(CN2CCC(C)(c3noc(C4CCOCC4)n3)CC2)ccc1O -0.39%
O=C(Nc1ccc(F)cc1)N1C[C@@H]2OCC(=O)N(Cc3ccc(OC(F)(F)F)cc3)[C@@H]2C1 -0.897%
COc1ccc(-c2ccc3nnc(CNC(=O)Cc4cccc(F)c4)n3n2)cc1 3.14%
Cc1ccc(S(=O)(=O)N2C[C@@H]3OCC(=O)N(Cc4ccc(F)cc4)[C@@H]3C2)cc1 0.307% [at 57.5 µM]
CCCCCC(=O)N[C@H]1C[C@@H](Cc2cc(CN3CCOCC3)on2)C1(C)C 0.0274% [at 57.5 µM]
c1ccc(CCCc2noc(-c3ccc(NCc4ccccn4)nc3)n2)cc1 62.3%
Cc1noc2c(N3CCOCC3)cc(-c3cccnc3)nc12 5.99% [at 57.5 µM]
Nc1nc(CCC(=O)N2CCn3nc(C(O)c4ccccc4)cc3C2)cs1 (stereo unspecified) 3.24%
COCCN1C(=O)CO[C@H]2CN(C(=O)c3ccc(F)cc3)C[C@H]21 7.39% [at 57.5 µM]
O=C(C1CC2(CCNCC2)CN1)N1CCC(c2nc3ccccc3[nH]2)CC1 (stereo unspecified) 35.6%
COc1ccc(NC(=O)Cn2cccc2-c2nc(-c3ccccc3)no2)cc1 4.84%
CC1=C[C@@H](CNC(=O)COc2ccccc2)[C@H](C(C)C)C[C@H]1Cc1nc2ccncc2[nH]1 52.4% [at 57.5 µM]
O=C(NC[C@H]1O[C@@H](CC(=O)N2CCCC2)[C@H](O)[C@@H]1O)c1cccc(F)c1 46.9% [at 57.5 µM]
O=C(NCc1nnc2ccc(-c3ccc(F)cc3)nn12)c1ccoc1 2.03%
Cn1c(CNCC2(COc3cccnc3)C[C@@H](O)[C@@H](O)C2)nc2ccccc21 (stereo partly specified) 28.6%
COc1ccc(CCCNC(=O)c2ccc(N3CCC(N(C)C)C3)nc2)cc1 (stereo unspecified) -2.89%
COc1cccc(CN[C@@H]2CCC[C@@H](C(=O)NCc3cc(C)on3)CC(=O)N(C)C2)c1 1.44% [at 57.5 µM]
CC(=O)NC1(C)CN(Cc2ccc(-c3cccc(C(F)(F)F)c3)nc2)C1 0.162% [at 57.5 µM]
COCCNC(=O)[C@H]1CCC[C@H]1NC(=O)c1ccc(OC)cc1 0.0448%
COCCNC(=O)[C@@H]1CCC[C@@H](NC(=O)NC2(c3ccccc3)CCOCC2)CN(C)C(=O)C1 5.27%
Cn1nc(C2CCN(C(=O)c3cnccn3)CC2)c2c1CCOC2 0.813%
COCCNc1ncc(-c2cccc(O)c2)c2c1OCC2 13.6% [at 76.7 µM]
Oc1ccccc1CN1CCNc2cnc(OCc3cccnc3)cc2C1 10.5% [at 57.5 µM]
O=C(Cc1ccc(F)cc1)N1CCc2nc(C3CC3)nc(-c3ccc(Cl)cc3)c2C1 1.12%
O=C(N[C@H]1CCN2C(=O)c3cc(-c4ccc5c(c4)OCO5)ccc3NC(=O)[C@H]12)C1CCCC1 1.5%
COc1ccc(CNC(=O)CC[C@H]2CNC(=O)[C@@H]3[C@@H](CCN3Cc3ncc[nH]3)N2C)cc1 15.4%
